This note sets out measurements from paper PMC7819943, “Rice protein-binding microarrays: a tool to detect cis-acting elements near promoter regions in rice”.

This is one part of the list.

The assay concerns the target T1, OsWOX13 (Oryza sativa, UniProt Q5QMM3 1-267).
T1 sequence: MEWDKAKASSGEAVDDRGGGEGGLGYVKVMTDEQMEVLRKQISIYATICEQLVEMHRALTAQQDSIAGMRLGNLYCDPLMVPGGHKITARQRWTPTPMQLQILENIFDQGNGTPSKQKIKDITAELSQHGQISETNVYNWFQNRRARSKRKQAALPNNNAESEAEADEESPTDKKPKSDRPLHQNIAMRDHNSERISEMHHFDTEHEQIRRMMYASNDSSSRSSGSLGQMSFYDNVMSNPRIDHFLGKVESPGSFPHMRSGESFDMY
Kind of assay: protein-binding microarray (RPBM); PBS, 2% BSA, 51.3 ng/ul salmon testes DNA, 50 uM zinc acetate, 200 nM TF, 25 C, 1 h; high values mean tight binding. As to conditions: protein: recombinant; tags: N-terminal polyhistidine and DsRed monomer fusion (pET32a); label: CyDye5-dUTP incorporated in the synthesized complementary strand; 3' TTTTT single-stranded linker to array surface; dsDNA, one strand shown. In outline:
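Transcription factors were made in E. coli BL21-CodonPlus as N-terminal fusions to a polyhistidine tag and DsRed, then purified on Ni–NTA. After primer extension with Cy5-dUTP and blocking with 2% BSA, a custom Agilent array was exposed for 1 h at 25 °C to 200 nM protein in PBS, 2% BSA, salmon testes DNA and 50 µM zinc acetate. Washed arrays were scanned on an Axon 4000B, and the binding signal is per-feature fluorescence intensity in arbitrary units.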
“TTACAGTTTCAAATCAATTTACAATCACATTCTTGATCTACGGAGTCACCTAGTGCAG”: the binding signal is 17700 fluorescence intensity (a.u.).
To “AAACAAATTTGTGGCGACACAAATACAACCTTTCCGTTTTCGGAGTCACCTAGTGCAG” belongs 3540 fluorescence intensity (a.u.).
Regarding “TTTAGCTTGATTGGTGATTTGCTGTTTTGCTCCAAGGTATCGGAGTCACCTAGTGCAG”, the binding signal was 44600 fluorescence intensity (a.u.).
To “CAAAACTACTGCAATTATTATATGTTTAGTGCCACTGCGACGGAGTCACCTAGTGCAG” belongs 6190 fluorescence intensity (a.u.).
To “CGTTCTAATTCCAATCAAACTTTCAATTTTGGCGTGAACTCGGAGTCACCTAGTGCAG” belongs 38400 fluorescence intensity (a.u.); to “GAAAATTTCATACAAATTACATTGTAGTTACACGCAAGTTCGGAGTCACCTAGTGCAG”, 5990 fluorescence intensity (a.u.).
To “AATTAATTAAGGAAAGAAATACATAAATCAAATATCGCACCGGAGTCACCTAGTGCAG” belongs 18500 fluorescence intensity (a.u.); to “TTTCCTGATTACGACTCTCTATGGTTGTAATCTTATAATTCGGAGTCACCTAGTGCAG”, 5890 fluorescence intensity (a.u.); to “AAAATTGTAAATTTGGTTGAAATTGGAACGATGTTATGGACGGAGTCACCTAGTGCAG”, 14100 fluorescence intensity (a.u.).
Consider “TCTTTAATTAGTAGCACTGAACAGTGAACACCAGTGCAGTCGGAGTCACCTAGTGCAG”, for which the binding signal is 25600 fluorescence intensity (a.u.).
With “TGTCAATTAGACAACCTAAGATGACCACTGTAAAGGTTTCCGGAGTCACCTAGTGCAG” the figure was 13300 fluorescence intensity (a.u.); with “AGATTCTGTCAAATTGACAAACGAGCCTTCTTCAGTTCCCCGGAGTCACCTAGTGCAG”, 26400 fluorescence intensity (a.u.); with “ATTTACTGATTACTGCCCCAGATTTGCTACAGTCCCCATACGGAGTCACCTAGTGCAG”, 22800 fluorescence intensity (a.u.).
For the sequence “ATGAATTTATTGATTGGGTTGGAGAGGGGAATCTCTCCAACGGAGTCACCTAGTGCAG”, the binding signal is 17100 fluorescence intensity (a.u.).
Take “TGTTCGGATTGATACCATTTCGAACCATACCAGTAAAGTTCGGAGTCACCTAGTGCAG”: the binding signal is 9770 fluorescence intensity (a.u.).
With “AATAATTTGTGGTTAGATGACACTATCTTTTCAATTCTGTCGGAGTCACCTAGTGCAG” the figure was 35400 fluorescence intensity (a.u.); with “TTTGTTAATTTAGTGCTCGATCGTACACCTCTGGATCTCACGGAGTCACCTAGTGCAG”, 6060 fluorescence intensity (a.u.); with “GTTTAATTTGTGTCTTCTAGTGCAATTTCAGGCTCCTGTACGGAGTCACCTAGTGCAG”, 24300 fluorescence intensity (a.u.).
In the case of “TATCCATCTAATCAAACATTGTAGATAAACCACAATGAGCCGGAGTCACCTAGTGCAG”, the binding signal was 7740 fluorescence intensity (a.u.).
To “GGGCCTGAACTATGTTATGATTGATTTGGAAAAGTGGGTCCGGAGTCACCTAGTGCAG” belongs 26000 fluorescence intensity (a.u.); to “ACTAGTGGATTGATTCCCGGTCTCTTATTGTCCCTATCATCGGAGTCACCTAGTGCAG”, 12900 fluorescence intensity (a.u.); to “AGTAAATTAAACCACAATCATGGTCGTTACAAACACGAATCGGAGTCACCTAGTGCAG”, 19300 fluorescence intensity (a.u.).
Regarding “ACCCAATAGATTCAACGAGATAATTATTATCAGTGGGTGTCGGAGTCACCTAGTGCAG”, the binding signal is 4350 fluorescence intensity (a.u.).
With “AAAAGAATCAGATTGAATTTCAAACTTTCGGACCAAATTTCGGAGTCACCTAGTGCAG” the figure was 4180 fluorescence intensity (a.u.).
With “CTTAAAACTTGATCTAAATTAGAGTAAATTAAGCAAGAGGCGGAGTCACCTAGTGCAG” the figure was 21300 fluorescence intensity (a.u.); with “GAGATTATTTGAAATGTATATCTAGACTCATCTACCTCATCGGAGTCACCTAGTGCAG”, 4140 fluorescence intensity (a.u.); with “GCTGTAGAAATTTCTCCTTCTTTGTTAAATGTATGTCTTTCGGAGTCACCTAGTGCAG”, 3550 fluorescence intensity (a.u.).
With “ACCAAATTAAGTGTTGTTTTGCCAAAATCTTGACAATTATCGGAGTCACCTAGTGCAG” the figure was 6780 fluorescence intensity (a.u.).
On to “TTGATTGAAATTGAAACGATATGATGGAAAAGTTAGAAGTCGGAGTCACCTAGTGCAG”, for which the binding signal was 48800 fluorescence intensity (a.u.).
To “AAATTTTGATTTTAAAACTTAATTGTAAAGTTGACTTTAACGGAGTCACCTAGTGCAG” belongs 9040 fluorescence intensity (a.u.); to “GGGGATTGAGATCTTGAGGTGGCACGGACACTAGACAACACGGAGTCACCTAGTGCAG”, 4470 fluorescence intensity (a.u.).
With “CCGAAATTGCTGCACAACTGACTTTACCCTTATTAAAAGACGGAGTCACCTAGTGCAG” the figure was 4510 fluorescence intensity (a.u.); with “CCAATTAACTCTAAAGATTATGGCACACCTCCATAGTTTCCGGAGTCACCTAGTGCAG”, 8730 fluorescence intensity (a.u.).
To “ACTAAATTGTTGCCCATTTATCCTAGCTATATAGTAGCTACGGAGTCACCTAGTGCAG” belongs 3980 fluorescence intensity (a.u.); to “TATAACATAAAATTTAATCCTTGATCCAAATACCACCTGACGGAGTCACCTAGTGCAG”, 3770 fluorescence intensity (a.u.); to “GAAAACACAATTACACAATGGATTATTCTAACTTAAAATGCGGAGTCACCTAGTGCAG”, 5660 fluorescence intensity (a.u.).
Consider “TAAGATTGATTTTGAGAAGCCTATGATATGATAGAGTTTACGGAGTCACCTAGTGCAG”, for which the binding signal was 33600 fluorescence intensity (a.u.).
With “TAGATTGGCAATAAATATTTGGCATTTAGAATAATACGTCCGGAGTCACCTAGTGCAG” the figure was 38900 fluorescence intensity (a.u.); with “ATCCTTGAGACATAAATTAATTAAATAATATATGGGCCAACGGAGTCACCTAGTGCAG”, 8810 fluorescence intensity (a.u.).
For “TTCATAAATTTGTCGGTCACTTTCGGCTGATCCGGGTTTCCGGAGTCACCTAGTGCAG”, the binding signal is 5220 fluorescence intensity (a.u.).
With “GATTAATTAGGCTCAATATATTCATCTCGCGAATTAGTCCCGGAGTCACCTAGTGCAG” the figure was 33000 fluorescence intensity (a.u.).
Consider “CTCTAAATCATAAAATAGTTAATTCATACAATAGTTACCTCGGAGTCACCTAGTGCAG”, for which the binding signal is 4150 fluorescence intensity (a.u.).
